Inconclusive means that the source gave no clear call. Such entries were picked first, then a sample of the others. Where the call is inconclusive, the potency comes from a doubtful curve fit. Activity calls are given as the source filed them. Unless noted, the call rests on the fitted dose curve.
Legend:
[1] = molecular target: Peroxisome proliferator-activated receptor gamma (Homo sapiens) (UniProt P37231); assay: qHTS assay to identify small molecule antagonists of the peroxisome proliferator-activated receptor gamma (PPARg) signaling pathway (AID 743191); details: HEK293H PPARg-UAS-bla, beta-lactamase ratio, antagonist, 17 h; ratio activity, negative = inhibition: at 62.6 µM (top of the series) unless noted; further: nearly all actives have a fitted effect of over 30% in size; on ratio activity, negative = inhibition: on the % scale 0 is the no-effect control and ±100 the full control effect
Sequence of UniProt P37231 (P37231 whole entry, looked up): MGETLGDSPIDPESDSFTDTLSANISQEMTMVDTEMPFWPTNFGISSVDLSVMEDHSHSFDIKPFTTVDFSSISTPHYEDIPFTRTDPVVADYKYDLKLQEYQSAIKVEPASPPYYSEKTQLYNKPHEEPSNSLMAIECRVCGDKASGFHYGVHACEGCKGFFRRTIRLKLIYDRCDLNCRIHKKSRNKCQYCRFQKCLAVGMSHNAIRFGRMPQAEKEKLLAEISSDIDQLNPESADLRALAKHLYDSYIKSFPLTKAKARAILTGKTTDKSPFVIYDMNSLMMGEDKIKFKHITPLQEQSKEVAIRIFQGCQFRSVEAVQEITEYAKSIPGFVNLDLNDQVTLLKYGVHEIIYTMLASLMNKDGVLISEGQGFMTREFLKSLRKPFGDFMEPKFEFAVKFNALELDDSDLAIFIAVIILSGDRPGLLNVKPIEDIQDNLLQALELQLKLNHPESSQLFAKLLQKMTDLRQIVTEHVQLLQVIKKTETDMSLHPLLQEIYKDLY
Procedure, shortened: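 Beta-lactamase reporter under UAS control in HEK293H PPARg-bla cells; compound treatment 17 h at 37C. Read-out: fluorescence intensity after 1 h room-temperature incubation with LiveBLAzer B/G FRET substrate.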

[2] = qHTS assay for small molecule agonists of the antioxidant response element (ARE) signaling pathway (AID 743202; active means well fitted activation curve with a large enough effect in the signal ratio in the repeat runs, not every such curve was filed as active; inconclusive means weak or mixed curves, or effect the other way; inactive means no such curve, though single readings can be large or run the other way; the % refers to the signal ratio; on activation: on the % scale 0 is the no-effect control and ±100 the full control effect); details: HepG2 ARE-bla reporter, beta-lactamase FRET, 16 h; activation: at 73.3 µM (top of the series) unless noted
Procedure, shortened: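 After 16 hours of compound treatment at 37 C, HepG2 cells with a stably integrated ARE-driven beta-lactamase reporter were loaded 2 hours at room temperature with LiveBLAzer B/G FRET substrate and fluorescence intensity measured.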

[3] = qHTS assay to identify small molecule antagonists of the peroxisome proliferator-activated receptor gamma (PPARg) signaling pathway - cell viability counter screen (AID 743194; active means well fitted curve in the direction sought with a large enough effect in the repeat runs; inconclusive means weak or mixed curves; inactive means no such curve, though single readings can be large; an effect the other way counts as inactive or inconclusive; further: nearly all actives have a fitted effect of over 55% in size); details: PPARg-bla HEK293H viability, CellTiter-Glo luminescence, 17 h, co-treated with 50 nM rosiglitazone; activity change, negative = cytotoxicity: at 62.6 µM (top of the series) unless noted
Procedure, shortened: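 Viability was measured as CellTiter-Glo luminescence in GeneBLAzer PPARg UAS-bla HEK293H cells. These cells had been exposed 17 h at 37 C to compounds together with rosiglitazone at 50 nM final, with the beta-lactamase readout taken in the same wells.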

[4] = qHTS assay to identify small molecule agonists of the peroxisome proliferator-activated receptor delta (PPARd) signaling pathway - cell viability counter screen (AID 743211; active means well fitted curve in the direction sought with a large enough effect in the repeat runs; inconclusive means weak or mixed curves; inactive means no such curve, though single readings can be large; an effect the other way counts as inactive or inconclusive; further: nearly all actives have a fitted effect of over 55% in size); details: PPARd-bla HEK293H viability, CellTiter-Glo luminescence, 17 h; activity change, negative = cytotoxicity: at 62.6 µM (top of the series)
Procedure, shortened: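 Read-out: CellTiter-Glo luminescence, 30 min RT, measured in the same wells as the beta-lactamase reporter. Cells: GeneBLAzer PPAR delta UAS-bla HEK293H, 3000 cells/well, compound exposure 17 h at 37C.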
Potency means the concentration at half of the fitted maximal effect; tags describe the fitted curve by direction and shape or compound fluorescence and quenching.

C=CC(=O)O
Potency [1]: inactive
Potency [2]: inconclusive: 25.1 µM [rising, partial curve]

O=C1CCCCC1
Potency [1]: inactive
activation [2]: inconclusive: 1.81%

Oc1cc(Cl)cc(Cl)c1Cl
ratio activity, negative = inhibition [1]: inconclusive: -13.4% [at 81.1 µM]
Potency [2]: active: 62.6 µM

CO[Si](OC)(OC)OC
ratio activity, negative = inhibition [1]: inconclusive: 1.63%
Potency [2]: inactive

CCCc1ccc(OCC(=O)N2CCN(C(=O)COc3ccc(CCC)cc3OC)CC2)c(OC)c1
ratio activity, negative = inhibition [1]: inconclusive: -25.3%
Potency [2]: active: 29.8 µM

C/C=C(\C)C(C)=O
Potency [1]: inactive
Potency [2]: inactive

O=C(O)c1cc(Br)c(O)c(Br)c1
Potency [1]: inactive
Potency [2]: inactive

CCCc1c2oc(C(=O)O)cc(=O)c2cc2c(=O)cc(C(=O)O)n(CC)c12
ratio activity, negative = inhibition [1]: inconclusive: 5.25%
Potency [2]: inactive

CCCCCCCCCCCCCCC(=O)O
ratio activity, negative = inhibition [1]: inconclusive: -24.1% [at 81.1 µM]
activation [2]: inconclusive: 14.6%

N=C(N)c1ccc(OCCCCCOc2ccc(C(=N)N)cc2)cc1
Potency [1]: inconclusive: 61.4 µM [rising, partial curve, poor fit]
Potency [3]: inconclusive: 43.4 µM [cytotoxic, partial curve, poor fit]
Potency [4]: inconclusive: 23.5 µM [cytotoxic, partial curve, poor fit]

CCCc1ccccc1O
Potency [1]: inactive
activation [2]: inconclusive: -4.75%

C1OCOCO1
ratio activity, negative = inhibition [1]: inconclusive: -6.44% [at 81.1 µM]
activation [2]: inconclusive: 11.4% [at 94.8 µM]

CC[C@H]1OC(=O)[C@H](C)[C@@H](O[C@H]2C[C@@](C)(OC)[C@@H](O)[C@H](C)O2)[C@H](C)[C@@H](O[C@@H]2O[C@H](C)C[C@H](N(C)C)[C@H]2O)[C@](C)(O)C[C@@H](C)CN(C)[C@H](C)[C@@H](O)[C@]1(C)O
ratio activity, negative = inhibition [1]: inconclusive: -28.3%
Potency [2]: inconclusive: 51 µM [rising, partial curve, poor fit]

O=C1c2ccccc2C(=O)c2c1ccc(O)c2O
Potency [1]: inconclusive: 7.5 µM [activator, full curve, poor fit]
Potency [2]: inconclusive: 4.22 µM [falling, partial curve, poor fit]

Cc1cc(-c2ccc(N=Nc3cc(S(=O)(=O)O)c4ccccc4c3N)c(C)c2)ccc1N=Nc1cc(S(=O)(=O)O)c2ccccc2c1N
Potency [1]: inactive
Potency [2]: active: 12.3 µM

CCCc1ccc(N)cc1
Potency [1]: inactive
Potency [2]: inactive

C=CCCCCCCCCC(=O)OCCCC
ratio activity, negative = inhibition [1]: inconclusive: 9.93%
activation [2]: inconclusive: -1.38%

Oc1ccc2c(c1)-c1ccccc1C2
Potency [1]: inconclusive: 15.5 µM [inhibitor, partial curve, poor fit]
Potency [2]: active: 4.86 µM

Cc1ccc(N(CC2=NCCN2)c2cccc(O)c2)cc1
Potency [1]: inactive
Potency [2]: inconclusive: 13.3 µM [falling, partial curve]

ClCCl
Potency [1]: inactive
Potency [2]: inactive

O=C(O)c1ccccc1[N+](=O)[O-]
Potency [1]: inactive
activation [2]: inconclusive: 10.1%

CC(C)CC(C)CC(C)CC(C)COC(=O)c1ccccc1C(=O)OCC(C)CC(C)CC(C)CC(C)C (configuration not stated)
ratio activity, negative = inhibition [1]: inconclusive: 1.23%
Potency [2]: inactive

CC(C)N1C(=O)c2ccccc2C1=O
Potency [1]: inactive
activation [2]: inconclusive: -15.9%

O=[N+]([O-])c1ccc(Cl)cc1Cl
Potency [1]: inactive
activation [2]: inconclusive: 28.8%

CC(C)COC(=O)c1ccc(O)cc1
Potency [1]: inactive
Potency [2]: inconclusive: 48.5 µM

C=C(C)c1cccc(C(=C)C)c1
Potency [1]: inactive
Potency [2]: inactive

NC(=O)C(c1ccccc1)(c1ccccc1)[C@@H]1CCN(CCc2ccc3c(c2)CCO3)C1
Potency [1]: inactive
Potency [2]: inconclusive: 13.3 µM [falling, partial curve, poor fit]

CC(C)Cn1cnc2c(N)nc3ccccc3c21
ratio activity, negative = inhibition [1]: inconclusive: 17.4% [at 29.1 µM]
Potency [2]: inconclusive: 9.2 µM [rising, partial curve]

[Cl][Nd]([Cl])[Cl]
ratio activity, negative = inhibition [1]: inconclusive: 5.16%
Potency [2]: inconclusive: 17.2 µM [falling, full curve]

O=C(O)c1ccc(OCCCOc2ccc(C(=O)O)cc2)cc1
ratio activity, negative = inhibition [1]: inconclusive: 8.23%
Potency [2]: inactive

Nc1ccc(F)cc1
ratio activity, negative = inhibition [1]: inconclusive: -29.9% [at 81.1 µM]
Potency [2]: inactive

CCSC(=O)N(CC)CC
ratio activity, negative = inhibition [1]: inconclusive: 26.7%
activation [2]: inconclusive: -10.4%

C=C(C)C(=O)OCCOCCOC(=O)C(=C)C
ratio activity, negative = inhibition [1]: inconclusive: -3.44%
Potency [2]: inconclusive: 54.5 µM [rising, partial curve, poor fit]

CC(=O)[C@H]1[C@H](C#N)C[C@H]2[C@@H]3CC=C4C[C@@H](O)CC[C@]4(C)[C@H]3CC[C@@]21C
ratio activity, negative = inhibition [1]: inconclusive: 27.9%
Potency [2]: active: 33.1 µM

NCCC(O)(P(=O)(O)O)P(=O)(O)O
ratio activity, negative = inhibition [1]: inconclusive: 14.2%
Potency [2]: inactive

CC(C)OC(=O)c1ccccc1C(=O)OC(C)C
ratio activity, negative = inhibition [1]: inconclusive: 2.34%
Potency [2]: inactive

CN(C)Cc1ccccc1O
Potency [1]: inactive
Potency [2]: inactive

Cc1cccc(N(C)C(=S)Oc2ccc3c(c2)C2CCC3C2)c1 (configuration not stated)
Potency [1]: inactive
activation [2]: inconclusive: 22.5%

O=S(=O)(O)c1ccccc1O
Potency [1]: inactive
activation [2]: inconclusive: -5.87%

Oc1cccc2[nH]ccc12
Potency [1]: inactive
Potency [2]: inconclusive: 13.3 µM [rising, partial curve]

CCN(CC)c1ccc2c(-c3ccccc3C(=O)O)c3ccc(=[N+](CC)CC)cc-3oc2c1
Potency [1]: inconclusive: 24.5 µM [inhibitor, partial curve]
activation [2]: inconclusive: 37.4%

CC[N+](CC)(CC)CCOC(=O)C(C1CCCC1)C1CCCC1
Potency [1]: inactive
Potency [2]: inconclusive: 33.5 µM [rising, partial curve, poor fit]

CCC(C)SSC(C)CC (configuration not stated)
Potency [1]: inconclusive: 43.6 µM [activator, partial curve, poor fit]
activation [2]: inconclusive: -4.82%

C=C(C)[C@@H]1CCC2=CC(=O)C[C@@H](C)[C@]2(C)C1
Potency [1]: inactive
Potency [2]: inactive

COC(=O)N/N=C/c1c[n+]([O-])c2ccccc2[n+]1[O-]
Potency [1]: inactive
Potency [2]: inconclusive: 26.6 µM [rising, partial curve, poor fit]

OC1(c2ccc(Cl)cc2)CCNCC1
Potency [1]: inactive
Potency [2]: inactive

Brc1cc(-c2ccc(Br)c(Br)c2Br)cc(Br)c1Br
ratio activity, negative = inhibition [1]: inconclusive: 10.6%
activation [2]: inconclusive: -0.792%

CC(C)(C)NCC(O)COc1ccccc1OCC1CCCO1 (configuration not stated)
Potency [1]: inactive
Potency [2]: inactive

C=CC(C)(CCC=C(C)C)OC=O (configuration not stated)
Potency [1]: inactive
activation [2]: inconclusive: 26.9%

CCOC(=O)O[C@]1(C(=O)OCCl)CC[C@H]2[C@@H]3CCC4=CC(=O)C=C[C@]4(C)[C@H]3[C@@H](O)C[C@@]21C
Potency [1]: inconclusive: 11.9 µM [inhibitor, partial curve]
Potency [2]: active: 10.6 µM

COCCc1ccc(OCC2CO2)cc1 (configuration not stated)
Potency [1]: inconclusive: 11.9 µM [activator, single point]
activation [2]: inconclusive: -17.7%

C/C(C=O)=C\c1ccccc1
Potency [1]: inactive
activation [2]: inconclusive: -19.9%

C=Cc1ccc(OC(C)=O)cc1
Potency [1]: inactive
Potency [2]: inconclusive: 13.7 µM [rising, full curve]

O=C(O)/C=C/c1ccc(O)c(O)c1
ratio activity, negative = inhibition [1]: inconclusive: 7.54% [at 81.1 µM]
Potency [2]: inconclusive: 1.38 µM [falling, partial curve, poor fit]

CC(C)C(=O)c1ccccc1
Potency [1]: inactive
Potency [2]: inactive

O=C(O)CCCCCCCCCCCC(=O)O
ratio activity, negative = inhibition [1]: inconclusive: 3.12%
activation [2]: inconclusive: 16.3%

Clc1ccc(Cl)c(Cl)c1Cl
Potency [1]: inconclusive: 61.7 µM [activator, single point]
Potency [2]: inactive

IC(I)I
Potency [1]: inconclusive: 61.6 µM [fluorescent, partial curve, poor fit] and inactive
Potency [2]: inconclusive: 61.1 µM [rising, partial curve, poor fit]

NC(=O)c1cnccn1
ratio activity, negative = inhibition [1]: inconclusive: -14.8%
Potency [2]: inactive

C=Cc1cccc(C)c1
ratio activity, negative = inhibition [1]: inconclusive: 0.68%
activation [2]: inconclusive: -13.5%

CCCCN(CCCC)C(C(N)=O)c1ccc(OC)cc1 (configuration not stated)
ratio activity, negative = inhibition [1]: inconclusive: 6.86%
Potency [2]: inactive

Nc1ccn([C@@H]2O[C@H](CO)[C@@H](O)C2O)c(=O)n1 (some centres not stated)
ratio activity, negative = inhibition [1]: inconclusive: -6.98%
activation [2]: inconclusive: 4.63%

CC(C)=CC(=O)C=C(C)C
ratio activity, negative = inhibition [1]: inconclusive: -1.71%
activation [2]: inconclusive: 15.2%

Cc1cccc(CN2CCN(C(c3ccccc3)c3ccc(Cl)cc3)CC2)c1 (configuration not stated)
ratio activity, negative = inhibition [1]: inconclusive: 0.543%
Potency [2]: inconclusive: 23.7 µM [rising, partial curve]

CC(CO)(CO)[N+](=O)[O-]
Potency [1]: inactive
Potency [2]: inactive

CC(=O)Oc1cccc(O)c1
ratio activity, negative = inhibition [1]: inconclusive: 2.84%
activation [2]: inconclusive: 12.6%

O=C(O)Cc1ccc2c(c1)C(=O)c1ccccc1CO2
ratio activity, negative = inhibition [1]: inconclusive: -28.1%
activation [2]: inconclusive: 26.3%

Cc1ccc(C(=O)O)cc1
ratio activity, negative = inhibition [1]: inconclusive: 13.9% [at 81.1 µM]
Potency [2]: inactive

CCOC(=O)N1CCC(Nc2ccc(Cl)cc2N)CC1
ratio activity, negative = inhibition [1]: inconclusive: 17.6%
Potency [2]: active: 7.5 µM

CN(C)C(=O)Nc1ccccc1
ratio activity, negative = inhibition [1]: inconclusive: 1.79%
Potency [2]: inactive

CCCOc1ccc2c(c1)CC[C@@H]1[C@@H]2CC[C@]2(C)C(OC)CC[C@@H]12 (some centres not stated)
ratio activity, negative = inhibition [1]: inconclusive: 23.9%
Potency [2]: inconclusive: 26.6 µM

O=C1CCCCCCCCCCCCCCCO1
ratio activity, negative = inhibition [1]: inconclusive: 29%
activation [2]: inconclusive: 21.3%

CCOc1ccc2ccccc2c1C(=O)N[C@@H]1C(=O)N2[C@@H]1SC(C)(C)[C@@H]2C(=O)O
ratio activity, negative = inhibition [1]: inconclusive: -4.75%
Potency [2]: active: 4.73 µM
